# Experimental data from the supplement of paper PMC4604168 (melanoma cell lines).
# Some of the results follow. Repeats are few or missing, and single values can be far off.
# Experiments:
# Assay in all cases: cell count relative to DMSO control; melanoma cells; higher = more viable cells
# Conditions in all cases: library dose: standard library concentration; 72 h
# [1] = system: G361
# [2] = system: IPC-298
# [3] = system: IST-MEL1
# [4] = system: LB2518-MEL
# [5] = system: LOXIMVI
# [6] = system: MEL-HO
# [7] = system: MZ2-MEL
# [8] = system: MeWo
# [9] = system: RPMI7951
# [10] = system: RVH-421
# [11] = system: SkMel28
# [12] = system: SkMel2
# [13] = system: SkMel30
# [14] = system: SkMel5
# [15] = system: UACC257
# [16] = system: UACC62
# [17] = system: WM115
# [18] = system: WM1716
# [19] = system: WM1745
# [20] = system: WM3526
# 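Also: cells treated in 1,536-well plates, then fixed and DAPI-stained, with nuclei counted from automated high-throughput microscope images.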
smiles,measurement,setting,value
"Cn1nnc2c(C(N)=O)ncn2c1=O [temozolomide] + CCc1ccc(CCOc2ccc(CC3SC(=O)NC3=O)cc2)nc1 [pioglitazone] (first compound 10 µM, partner dose 10 µM)",cell count,[1],76.4%
same,cell count,[2],63.2%
same,cell count,[3],81.7%
same,cell count,[4],96.8%
same,cell count,[5],80.2%
same,cell count,[6],91.8%
same,cell count,[7],79.3%
same,cell count,[8],98.2%
same,cell count,[9],90.4%
same,cell count,[10],81.3%
same,cell count,[11],33.4%
same,cell count,[12],99.9%
same,cell count,[13],65.4%
same,cell count,[14],65.8%
same,cell count,[15],92.5%
same,cell count,[16],77.1%
same,cell count,[17],79.8%
same,cell count,[18],76.8%
same,cell count,[19],79%
same,cell count,[20],98.3%
"O=C(Nc1cc(C(F)(F)F)cc(C(F)(F)F)c1)c1cc(Cl)ccc1O + Cn1c(=O)n(-c2ccc(C(C)(C)C#N)cc2)c2c3cc(-c4cnc5ccccc5c4)ccc3ncc21 [NVP-BEZ235] (first compound 0.08 µM, partner dose 0.02 µM)",cell count,[1],79.9%
same,cell count,[2],80.9%
same,cell count,[3],78.6%
same,cell count,[4],85.3%
same,cell count,[5],73.2%
same,cell count,[6],71.5%
same,cell count,[7],62.6%
same,cell count,[8],78.3%
same,cell count,[9],82.4%
same,cell count,[10],74.3%
same,cell count,[11],65%
same,cell count,[12],71%
same,cell count,[13],95.4%
same,cell count,[14],81.2%
same,cell count,[15],87.4%
same,cell count,[16],64.7%
same,cell count,[17],76.8%
same,cell count,[18],67.6%
same,cell count,[19],75.3%
same,cell count,[20],73.9%
"O=C(O)c1ccc2c(c1)nc(Nc1cccc(Cl)c1)c1ccncc12 + O=C(Nc1cccc(Cl)c1)Nc1ncc(CCNc2ncnc3ccsc23)s1 [SNS314] (first compound 2 µM, partner dose 0.004 µM)",cell count,[1],40.3%
same,cell count,[2],83.1%
same,cell count,[3],40.8%
same,cell count,[4],90%
same,cell count,[5],48.8%
same,cell count,[6],42.9%
same,cell count,[7],45.5%
same,cell count,[8],37.1%
same,cell count,[9],50.2%
same,cell count,[10],79.8%
same,cell count,[11],56.1%
same,cell count,[12],69.7%
same,cell count,[13],79.5%
same,cell count,[14],63.3%
same,cell count,[15],67%
same,cell count,[16],83.2%
same,cell count,[17],46.6%
same,cell count,[18],43.8%
same,cell count,[19],52.9%
same,cell count,[20],50.5%
"O=C(O)c1ccc2c(c1)nc(Nc1cccc(Cl)c1)c1ccncc12 + O=C(O)c1ccc(-c2c[nH]c3ncc(-c4ccccc4)cc23)cc1C1CCCC1 [GSK650394] (first compound 2 µM, partner dose 0.8 µM)",cell count,[1],50.7%
same,cell count,[2],80.7%
same,cell count,[3],63.6%
same,cell count,[4],106%
same,cell count,[5],59.5%
same,cell count,[6],60.1%
same,cell count,[7],74.6%
same,cell count,[8],97.7%
same,cell count,[9],63.9%
same,cell count,[10],63%
same,cell count,[11],67.1%
same,cell count,[12],69.6%
same,cell count,[13],91.1%
same,cell count,[14],72.5%
same,cell count,[15],83.9%
same,cell count,[16],105%
same,cell count,[17],98.3%
same,cell count,[18],96.1%
same,cell count,[19],55.6%
same,cell count,[20],65.8%
"Cc1cc(N2CCOCC2)cc2[nH]c(-c3c(NC[C@@H](O)c4cccc(Cl)c4)cc[nH]c3=O)nc12 + COc1cc2ncnc(Nc3ccc(Oc4ccccc4)cc3)c2cc1OC [SrcI1] (first compound 1 µM, partner dose 10 µM)",cell count,[1],58.6%
same,cell count,[2],61.9%
same,cell count,[3],98.8%
same,cell count,[4],114%
same,cell count,[5],63%
same,cell count,[6],83.1%
same,cell count,[7],72.6%
same,cell count,[8],69%
same,cell count,[9],66.4%
same,cell count,[10],117%
same,cell count,[11],59.9%
same,cell count,[12],76.1%
same,cell count,[13],81.2%
same,cell count,[14],63.5%
same,cell count,[15],86.4%
same,cell count,[16],66.9%
same,cell count,[17],80.9%
same,cell count,[18],79.8%
same,cell count,[19],37.6%
same,cell count,[20],41.4%
"Cn1nnc2c(C(N)=O)ncn2c1=O [temozolomide] + COc1cc(N2CCC(N3CCN(C)CC3)CC2)ccc1Nc1ncc(Cl)c(Nc2ccccc2S(=O)(=O)C(C)C)n1 [NVP-TAE684] (first compound 10 µM, partner dose 0.4 µM)",cell count,[1],75.9%
same,cell count,[2],77.5%
same,cell count,[3],76.1%
same,cell count,[4],138%
same,cell count,[5],107%
same,cell count,[6],83.4%
same,cell count,[7],77.7%
same,cell count,[8],70.8%
same,cell count,[9],69.3%
same,cell count,[10],86.9%
same,cell count,[11],47.3%
same,cell count,[12],77.3%
same,cell count,[13],82%
same,cell count,[14],67.6%
same,cell count,[15],92.4%
same,cell count,[16],69.6%
same,cell count,[17],67.7%
same,cell count,[18],52.9%
same,cell count,[19],62.2%
same,cell count,[20],81%
"Cn1nnc2c(C(N)=O)ncn2c1=O [temozolomide] + O=c1cc(-c2cccc3c2Sc2ccccc2S3)oc(N2CCOCC2)c1 [KU55933] (first compound 10 µM, partner dose 5 µM)",cell count,[1],76.6%
same,cell count,[2],80.2%
same,cell count,[3],87.5%
same,cell count,[4],114%
same,cell count,[5],122%
same,cell count,[6],86%
same,cell count,[7],73.8%
same,cell count,[8],94%
same,cell count,[9],83.7%
same,cell count,[10],83.6%
same,cell count,[11],45.8%
same,cell count,[12],78.3%
same,cell count,[13],57.2%
same,cell count,[14],96.7%
same,cell count,[15],105%
same,cell count,[16],52.2%
same,cell count,[17],90.3%
same,cell count,[18],61.7%
same,cell count,[19],97.6%
same,cell count,[20],70.3%
"O=C(Nc1cc(C(F)(F)F)cc(C(F)(F)F)c1)c1cc(Cl)ccc1O + C[C@@H]1CCN(C(=O)CC#N)C[C@@H]1N(C)c1ncnc2[nH]ccc12 [CP690550] (first compound 0.08 µM, partner dose 5 µM)",cell count,[1],95.8%
same,cell count,[2],95.4%
same,cell count,[3],78.6%
same,cell count,[4],79.3%
same,cell count,[5],134%
same,cell count,[6],84.9%
same,cell count,[7],122%
same,cell count,[8],96.9%
same,cell count,[9],96.2%
same,cell count,[10],94.2%
same,cell count,[11],94.8%
same,cell count,[12],80.2%
same,cell count,[13],104%
same,cell count,[14],79.2%
same,cell count,[15],85.5%
same,cell count,[16],84.9%
same,cell count,[17],75.6%
same,cell count,[18],105%
same,cell count,[19],92.7%
same,cell count,[20],100%
"Cn1nnc2c(C(N)=O)ncn2c1=O [temozolomide] + Cn1cc(/C=C2\C(=O)Nc3cccnc32)c2ccccc21 [GW441756] (first compound 10 µM, partner dose 2 µM)",cell count,[1],90%
same,cell count,[2],63%
same,cell count,[3],81.3%
same,cell count,[4],83.1%
same,cell count,[5],96%
same,cell count,[6],86.3%
same,cell count,[7],77.2%
same,cell count,[8],104%
same,cell count,[9],92.6%
same,cell count,[10],84.6%
same,cell count,[11],33.4%
same,cell count,[12],102%
same,cell count,[13],72.5%
same,cell count,[14],79.8%
same,cell count,[15],77.9%
same,cell count,[16],62.6%
same,cell count,[17],80.1%
same,cell count,[18],54.8%
same,cell count,[19],80.8%
same,cell count,[20],102%
